Experimental data published in the CheMixHub viscosity set.
The source gives many values for each of these; only a part stands here.

Assay: xn = mol fraction of the nth substance listed
Conditions: 323.15 K, 101.33 kPa

CC(C)CC(C)(C)C + C1CCCCC1
Conditions	viscosity [mPa·s]
x1 = 0.2147	0.5072
x1 = 0.2557	0.4944
x1 = 0.2984	0.482
x1 = 0.343	0.4687
x1 = 0.3895	0.4559
x1 = 0.4382	0.4457
x1 = 0.4891	0.4358
x1 = 0.5423	0.4251
x1 = 0.5982	0.4147
x1 = 0.6569	0.4059
x1 = 0.7185	0.3975
x1 = 0.7834	0.3888
x1 = 0.8517	0.3804
x1 = 0.9238	0.3727
